Several values for one entry are separate records, joined by “and”; a condition that tells them apart may be missing. Identical values can stand only once.
How the values were obtained:
[1] = target: T1, human IGF1R extracellular domain, His-tagged (human); test: ELISA on ECD of IGF1R
T1 construct: Bought (R&D Systems 391-GR or Sino Biological 10164-H08H); also called recombinant IGF1R; ECD of IGF1R

[2] = target: T1, human IGF1R extracellular domain, …; test: ELISA, native human IGF1R ECD
[3] = target: T1, human IGF1R extracellular domain, …; test: ELISA on coated IGF1R, antibody titrated up to 400 nM; C of the 4-P fit, D 2.42
human IGF1R on cells = target: T2, human IGF1R on cells (human); test: FACS on MCF-7 cells (2nd Ab only: 2.92)
T2 construct: also called endogenous IGF1R on the cell surface (MCF-7, JIMT-1, BT474, SKBR3); IGF1R library on OVCAR3 cells

[4] = target: T1, human IGF1R extracellular domain, …; test: ELISA on coated IGF1R, antibody titrated up to 400 nM; C of the 4-P fit
rat IGF1R, His-tagged = rat IGF1R, His-tagged (rat, UniProt P24062, in part); test: ELISA, IGF1R coated, anti-human Fab-HRP
mouse IGF1R, His-tagged = target: T3, mouse IGF1R, His-tagged (mouse, UniProt Q60751, in part); test: ELISA, IGF1R coated, anti-human Fab-HRP
T3 construct: bought

monkey IGF1R, His-tagged = monkey IGF1R, His-tagged (monkey); test: ELISA, IGF1R coated, anti-human Fab-HRP
[5] = target: T1, human IGF1R extracellular domain, …; test: ELISA, IGF1R coated, anti-human Fab-HRP
[6] = target: T4, mouse IGF1R on bEND.3 brain endothelial cells (mouse, UniProt Q60751); test: FACS on bEND.3 mouse brain endothelial cells; MFI of secondary Ab only 3.20
T4 construct: whole, on cells; also called IGF1R expressed on the surface of brain endothelial cells

[7] = target: T1, human IGF1R extracellular domain, …; test: ELISA on ECD of IGF1R; remark: listed apart in the source

B1: ch11F11-1564 bivalent (bispecific antibody, human IgG1)
heavy: EVQLQESGGGLVQPGGSLRLSCATSGFTFSDFYMEWVRQPPGKRLEWIAASRNKANDYTTEYSASVKGRFIVSRDTSQSILYLQMNALRAEDTAIYYCARDAHGKPFAYWGQGTLVTVSA[human IgG1 constant region not written out]GGGGSGGGGSGGGGSQSVLTQPPSASGTPGQRVTISCTGSSSNIGSNDVSWYQQLPGTAPKLLIYANSNRPSGVPDRFSGSKSGTSASLAISGLRSEDEADYYCGAWDDSLNGYVFGCGTKLTVLGGGGSGGGGSGGGGSGGGGSEVQLLESGGGLVQPGGSLRLSCAASGFTFSSYDMSWVRQAPGKCLEWVSAISYDNGNTYYADSVKGRFTISRDNSKNTLYLQMNSLRAEDTAVYYCAKGVLTTLMNWFDYWGQGTLVTVSS
VL: DIVMTQSPSSLAVSVGEKVTMS[about 80 residues not written out]FGGGTKLEIK
Binder B1 has an EC50 [1] of 0.49 nM, an EC50 [2] of 0.914 nM and an EC50 [3] of 1.01 nM. For the same binder, the GEOmean (human IGF1R on cells) was 4.09, the EC50 [4] was 0.644 nM and the EC50 (rat IGF1R, His-tagged) was 1.05 nM and 0.874 nM. For the same binder, the EC50 (mouse IGF1R, His-tagged) was 3.02 nM, the EC50 (monkey IGF1R, His-tagged) was 2.48 nM and 2.21 nM and the EC50 [5] was 0.914 nM and 0.379 nM. For the same binder, the MFI [6] was 4.37.

B2: ch11F11-1564 monovalent (bispecific antibody, human IgG1)
heavy 1: EVQLQESGGGLVQPGGSLRLSCATSGFTFSDFYMEWVRQPPGKRLEWIAASRNKANDYTTEYSASVKGRFIVSRDTSQSILYLQMNALRAEDTAIYYCARDAHGKPFAYWGQGTLVTVSAASTKGPSVFPLAPSSKSTSGGTAALGCLVKDYFPEPVTVSWNSGALTSGVHTFPAVLQSSGLYSLSSVVTVPSSSLGTQTYICNVNHKPSNTKVDKKV[human IgG1 Fc with changes not written out]GGGGSGGGGSGGGGSQSVLTQPPSASGTPGQRVTISCTGSSSNIGSNDVSWYQQLPGTAPKLLIYANSNRPSGVPDRFSGSKSGTSASLAISGLRSEDEADYYCGAWDDSLNGYVFGCGTKLTVLGGGGSGGGGSGGGGSGGGGSEVQLLESGGGLVQPGGSLRLSCAASGFTFSSYDMSWVRQAPGKCLEWVSAISYDNGNTYYADSVKGRFTISRDNSKNTLYLQMNSLRAEDTAVYYCAKGVLTTLMNWFDYWGQGTLVTVSS
heavy 2: EVQLQESGGGLVQPGGSLRLSCATSGFTFSDFYMEWVRQPPGKRLEWIAASRNKANDYTTEYSASVKGRFIVSRDTSQSILYLQMNALRAEDTAIYYCARDAHGKPFAYWGQGTLVTVSA[human IgG1 constant region with changes not written out]
VL: DIVMTQSPSSLAVSVGEKVTMS[about 80 residues not written out]FGGGTKLEIK
B2 was tested, and the EC50 [7] was 0.347 nM and the EC50 [4] was 0.904 nM.

Reference: patent US20240101687A1 (ABL BIO, published 2024)
